Among all 48,000 compounds or so, about 120 (0.25%) were called active. Roughly 4% stayed inconclusive and do not appear here. Calls follow the shape of the dose curve; as a rule, active = well fitted activation curve with a large enough effect; inconclusive = small, poorly fitted or top-dose-only effect, or another doubt; inactive = no such curve, though single readings can be large or run the other way. The list shows a part of the results.
Assay: Primary qHTS for Identification of Small Molecule Activators of Huntingtin-Antisense Promoter Activity; also: nearly all actives have a fitted effect of over 55% in size
Conditions: HEK293 HTT-AS promoter firefly luciferase reporter, 24 h; series mostly up to 57.5 µM; activity change, positive = activation: at the top concentration
Method in brief: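 Luminescence was read after Dual-Glo reagent and a 10 min room-temperature incubation. Values were normalized to vehicle (0% activity) and zero RLU (-100% activity). Reporter HEK293 cells had been exposed to compounds (up to 57.5 uM final) for 24 h.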

| SMILES | activity change, positive = activation |
| --- | --- |
| Cc1ccc(CNC(=O)c2ccc(Cn3c(SCc4ccc(F)cc4)nc4cccnc43)cc2)o1 | inactive: 7.57% |
| O=c1n(Cc2ccc(F)cc2)c2ccccc2c2nc(-c3ccccc3)nn12 | inactive: -10.3% |
| CCOC(=O)c1c(C)oc2nc(C)nc(NCC3CCN(Cc4cc(C)ccc4C)CC3)c12 | inactive: -8.91% |
| Cc1ccc(N2C(=O)C(CC(=O)Nc3cccc(F)c3)N(CCc3ccccc3F)C2=O)cc1 (configuration not stated) | inactive: -2.18% |
| CCCN(C(=O)CCc1nc(-c2ccc(C)cc2)no1)c1ccc(OCC)cc1 | inactive: -35.5% |
| Cc1ccc(Nc2c3c(nc4nncn24)CCC3)c(C)c1 | inactive: -18.6% |
| Cc1ccc(NC(=O)CN2C(=O)c3cccnc3Sc3ccccc32)c(Br)c1 | inactive: -12% |
| COc1ccc2c(c1)-c1nc(NC(=O)c3cccc(Br)c3)sc1CC2 | inactive: -19.8% |
| Cc1ccc(NC(=O)Cn2nnc(-c3ccccc3)n2)c(C)c1 | inactive: -3.48% |
| CCOC(=O)c1c(NC(=O)c2cc(-c3cccc(Cl)c3)on2)sc(C(C)=O)c1C | inactive: 4.16% |
| O=C(C1COc2ccccc2O1)N(Cc1cccnc1)c1nc2c(F)cccc2s1 (configuration not stated) | inactive: 17.8% |
| CC1CCN(S(=O)(=O)c2cc(C(=O)N3CCN(c4cccc(Cl)c4)CC3)n(C)c2)CC1 | inactive: -36.2% |
| COc1ccc(N(CC(=O)N2CCc3ccccc3C2)S(=O)(=O)c2ccccc2)cc1 | inactive: -12.9% |
| CCOc1ccc(S(=O)(=O)c2cn(CC)c3ccc(F)cc3c2=O)cc1 | inactive: 0.086% |
| CCOC(=O)c1nnn(C(CC)C(=O)Nc2ccc(F)cc2)c1C(=O)OCC (configuration not stated) | inactive: -18.8% |
| COc1ccccc1C1C(C(=O)N2CCCCC2)=C(C)Nc2nc3ccccc3n21 (configuration not stated) | inactive: -12.2% |
| CCOc1ccc(C(=O)OCc2cc(=O)n3nc(C4CC4)sc3n2)cc1 | inactive: -10.8% |
| COc1cc(Cl)c(C)cc1NC(=O)c1cc2c(=O)oc3ccccc3c2s1 | inactive: -4.47% |
| CCn1cc(C(=O)N2CCN(c3cc(Cl)ccc3C)CC2)c(=O)c2cc(S(=O)(=O)N3CCCC3)ccc21 | inactive: 10.5% [at 11.5 µM, percent change from vehicle, -100% = no light] |
| COc1cc2nc(SCC(=O)Nc3ccccc3C)n3nc(CCn4c(C)nc5ccccc54)nc3c2cc1OC | inactive: 4.75% |
| CC(C)(C)C1CCc2c(sc(NC(=O)c3ccco3)c2C(=O)Nc2ccccc2Cl)C1 (configuration not stated) | inactive: 14.9% [at 11.5 µM, percent change from vehicle, -100% = no light] |
| CCOCCCNC(=O)c1cn(CC)c2ccc(S(=O)(=O)N3CCOCC3)cc2c1=O | inactive: -4.3% |
| CCOC(=O)CSc1nc2ccc(NC(=O)COc3ccc(F)cc3)cc2s1 | inactive: -10.8% |
| Cc1cccc2sc(N(Cc3cccnc3)C(=O)CCOc3ccccc3)nc12 | inactive: -16.2% |

| SMILES | activity change, positive = activation |
| --- | --- |
| COc1ccc(CNC(=O)C2=CC(c3ccc(OC)c(OC)c3)=NS(=O)(=O)N2C)cc1 | inactive: -13.1% |
| Cc1cc(C(=O)N2CCN(c3cccc(Cl)c3)CC2)c2c(C)nn(-c3ccccc3Cl)c2n1 | inactive: -35.9% |
| CCCSc1ncc(Cl)c(C(=O)N(Cc2ccccc2)c2ccc(OC)cc2)n1 | inactive: -54.8% |
| Cc1ccccc1OCC(=O)Nc1ccc(-c2nc3cc(Cl)cc(Cl)c3o2)cc1 | inactive: 23.6% |
| COc1cccc(NC(=O)N(CCC(C)C)C2CCN(C(C)C)CC2)c1 | inactive: -8.06% |
| Cc1ccc(CNC(=O)C2CCN(S(=O)(=O)c3ccc4nc5c(c(C(=O)O)c4c3)CC(C)CC5)CC2)cc1 (configuration not stated) | inactive: -4.42% |
| CCc1cnc2c(c1SCC(=O)NCc1ccc(C)cc1)c(=O)n(C)c(=O)n2C | inactive: -9.95% |
| C[C@@H](N)C(=O)O | inactive: -5.74% |
| Cn1ccc2c(OCC(=O)Nc3ccc(OC(F)(F)F)cc3)cccc2c1=O | inactive: -76.3% |
| CC(=O)c1ccc(NS(=O)(=O)c2ccc(Br)s2)cc1 | inactive: -11.5% |
| Cc1ccc(Cn2c(=O)n(CCCCC(=O)NCc3ccc4c(c3)OCO4)c(=O)c3ccccc32)cc1 | inactive: -17% |
| COc1cccc(N2CCN(C3=NS(=O)(=O)C(c4ccc(C)cc4)=C3C)CC2)c1 | inactive: -5.37% |
| CCc1ccccc1S(=O)(=O)Cc1ccc(C(=O)NCCc2ccc(C)cc2)o1 | inactive: -26.3% |
| CCC(Sc1nnc2c(n1)[nH]c1ccccc12)C(=O)Nc1ccccc1OC (configuration not stated) | inactive: 22.7% |
| CCc1ccccc1NC(=O)CSc1ncc2c(n1)-c1cc(Cl)ccc1N(Cc1ccccc1)S2(=O)=O | inactive: -15.1% |
| Cc1cc(C)cc(C(=O)NCCc2csc(-c3ccc(C(F)(F)F)cc3)n2)c1 | inactive: -21.8% |
| CCCCn1cc(S(=O)(=O)c2ccc(OC)cc2)c(=O)c2cc(F)c(N3CCOCC3)cc21 | inactive: -14.8% |
| COc1ccc(CCNC(=O)CCc2c(C)nc3c4cccnc4nn3c2C)cc1OC | inactive: -8.77% |
| Cc1c(C(=O)OCC2CCCCC2)[nH]c2c1C(=O)CC(c1ccccc1Cl)C2 (configuration not stated) | inactive: -11.2% |
| CCc1ccc(-n2nc(C)c3c(C)cc(=O)n(CC(=O)Nc4cc(C)ccc4C)c32)cc1 | inactive: -13.7% |
| Cc1ccc(N2C(=O)c3n[nH]c(C)c3C2c2ccccc2Cl)cc1 (configuration not stated) | inactive: -25.7% |
| COc1ccccc1NC(=O)N1CCN(Cc2nc3ccc(C)cc3o2)CC1 | inactive: -6.57% |
| Cn1cc(S(=O)(=O)N2CCCC2)cc1C(=O)N1CCN(c2cccc(Cl)c2)CC1 | inactive: -24.9% |
